By IC50 is meant the dose at which the fit gives 50% viability; where the fit passes the top or lowest dose, that dose stands as a limit. The AUC spans the tested range (256-fold, ending at the top dose) of the same fit; it is 1 without any effect and falls as sensitivity rises. For part of these data: Any top dose called inferred was derived from the fitted curves, not read from the paper. For part of these data: Where an entry number is given, a second screen of the drug exists; the two often differ.
Columns and labels:
Experiment in all cases: Viability of human cancer cell lines after 72 h of drug (GDSC screen)
[1] = compound: COc1cc2c(Nc3ccc(NC(=O)c4ccccc4)cc3)ncnc2cc1OCCCN1CCOCC1 [ZM-447439]; conditions: top dose inferred
Method: (§1)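 Human cancer cell lines in 384-well plates, medium with 10% serum, drug for 72 h over a 256-fold dose range (nine 2-fold or five 4-fold steps up to the top dose). Adherent lines were fixed and stained with the nucleic acid dye Syto60, suspension lines read with resazurin; signal relative to control wells, capped at 0 and 100%. One two-parameter sigmoid per drug and line, fitted in a mixed model over all curves with the slope shared within a line.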

[2] = compound: CC(=O)c1c(C)c2cnc(Nc3ccc(N4CCNCC4)cn3)nc2n(C2CCCC2)c1=O [PD-0332991]
Method: as §1

[3] = compound: Cn1cnc2c(F)c(Nc3ccc(Br)cc3Cl)c(C(=O)NOCCO)cc21 [AZD6244]; conditions: screen: GDSC drug entry 1062
Method: as §1

Row | Cell Line | AUC [1] | IC50 [1] | AUC [2] | IC50 [2] | AUC [3] | IC50 [3]
1 | NCI-H1341 (small cell lung carcinoma, suspension, top dose 4 µM) | 0.949 | > 4 µM | 0.992 | > 4 µM | 0.99 | > 4 µM
2 | NCI-H1355 (lung adenocarcinoma, adherent, top dose 2 µM) | 0.905 | > 2 µM | 0.773 | 1.16 µM | 0.936 | > 2 µM
3 | NCI-H1395 (lung adenocarcinoma, adherent, top dose 4 µM) | 0.961 | > 4 µM | 0.971 | > 4 µM | 0.972 | > 4 µM
4 | NCI-H1417 (small cell lung carcinoma, suspension, top dose 4 µM) | 0.797 | 2.32 µM | 0.305 | 0.0633 µM | 0.967 | > 4 µM
5 | NCI-H1435 (lung adenocarcinoma, semi-adherent, top dose 4 µM) | 0.992 | > 4 µM | 0.993 | > 4 µM | 0.99 | > 4 µM
6 | NCI-H1436 (small cell lung carcinoma, suspension, top dose 4 µM) | 0.898 | > 4 µM | 0.986 | > 4 µM | 0.983 | > 4 µM
7 | NCI-H1563 (lung adenocarcinoma, adherent, top dose 4 µM) | 0.981 | > 4 µM | 0.884 | > 4 µM | 0.957 | > 4 µM
8 | NCI-H1623 (lung adenocarcinoma, adherent, top dose 4 µM) | 0.934 | > 4 µM | 0.917 | > 4 µM | 0.858 | > 4 µM
9 | NCI-H1651 (lung adenocarcinoma, adherent, top dose 4 µM) | 0.845 | 3.22 µM | 0.946 | > 4 µM | 0.87 | > 4 µM
10 | NCI-H1688 (small cell lung carcinoma, adherent, top dose 4 µM) | 0.973 | > 4 µM | 0.978 | > 4 µM | 0.974 | > 4 µM
11 | NCI-H1693 (lung adenocarcinoma, adherent, top dose 2 µM) | 0.926 | > 2 µM | 0.852 | > 2 µM | 0.897 | > 2 µM
12 | NCI-H1694 (small cell lung carcinoma, suspension, top dose 4 µM) | 0.945 | > 4 µM | 0.989 | > 4 µM | 0.984 | > 4 µM
13 | NCI-H1703 (lung adenocarcinoma, adherent, top dose 4 µM) | 0.947 | > 4 µM | 0.716 | 1.19 µM | 0.961 | > 4 µM
14 | NCI-H1755 (lung adenocarcinoma, adherent, top dose 4 µM) | 0.902 | > 4 µM | 0.855 | > 4 µM | 0.942 | > 4 µM
15 | NCI-H1770 (non-small cell lung carcinoma, suspension, top dose 4 µM) | 0.935 | > 4 µM | 0.992 | > 4 µM | 0.991 | > 4 µM
16 | NCI-H1781 (lung adenocarcinoma, adherent, top dose 4 µM) | 0.871 | 3.78 µM | 0.989 | > 4 µM | 0.989 | > 4 µM
17 | NCI-H1792 (lung adenocarcinoma, adherent, top dose 4 µM) | 0.978 | > 4 µM | 0.837 | 2.31 µM | 0.951 | > 4 µM
18 | NCI-H1836 (small cell lung carcinoma, suspension, top dose 4 µM) | 0.988 | > 4 µM | 0.988 | > 4 µM | 0.988 | > 4 µM
19 | NCI-H1869 (lung squamous cell carcinoma, adherent, top dose 4 µM) | 0.957 | > 4 µM | 0.93 | > 4 µM | 0.868 | > 4 µM
20 | NCI-H1876 (small cell lung carcinoma, adherent, top dose 4 µM) | 0.872 | 3.9 µM | 0.987 | > 4 µM | 0.987 | > 4 µM

Row | Cell Line | AUC [1] | IC50 [1] | AUC [2] | IC50 [2] | AUC [3] | IC50 [3]
21 | NCI-H1944 (lung adenocarcinoma, adherent, top dose 4 µM) | 0.96 | > 4 µM | 0.899 | > 4 µM | 0.985 | > 4 µM
22 | NCI-H1975 (lung adenocarcinoma, adherent, top dose 4 µM) | 0.931 | > 4 µM | 0.864 | > 4 µM | 0.983 | > 4 µM
23 | NCI-H1993 (lung adenocarcinoma, adherent, top dose 4 µM) | 0.958 | > 4 µM | 0.975 | > 4 µM | 0.983 | > 4 µM
24 | NCI-H2009 (lung adenocarcinoma, adherent, top dose 4 µM) | 0.874 | > 4 µM | 0.968 | > 4 µM | 0.96 | > 4 µM
25 | NCI-H2023 (lung adenocarcinoma, adherent, top dose 2 µM) | 0.959 | > 2 µM | 0.81 | 1.39 µM | 0.956 | > 2 µM
26 | NCI-H2052 (mesothelioma, adherent, top dose 4 µM) | 0.978 | > 4 µM | 0.969 | > 4 µM | 0.981 | > 4 µM
27 | NCI-H2081 (small cell lung carcinoma, suspension, top dose 4 µM) | 0.898 | > 4 µM | 0.989 | > 4 µM | 0.986 | > 4 µM
28 | NCI-H2085 (lung adenocarcinoma, adherent, top dose 2 µM) | 0.917 | > 2 µM | 0.876 | > 2 µM | 0.887 | > 2 µM
29 | NCI-H2087 (lung adenocarcinoma, semi-adherent, top dose 4 µM) | 0.892 | > 4 µM | 0.772 | 1.66 µM | 0.688 | 0.881 µM
30 | NCI-H2135 (non-small cell lung carcinoma, adherent, top dose 4 µM) | 0.991 | > 4 µM | 0.991 | > 4 µM | 0.984 | > 4 µM
31 | NCI-H2141 (small cell lung carcinoma, suspension, top dose 4 µM) | 0.985 | > 4 µM | 0.991 | > 4 µM | 0.991 | > 4 µM
32 | NCI-H2227 (small cell lung carcinoma, semi-adherent, top dose 4 µM) | 0.801 | 2.26 µM | 0.986 | > 4 µM | 0.975 | > 4 µM
33 | NCI-H2291 (lung adenocarcinoma, adherent, top dose 4 µM) | 0.952 | > 4 µM | 0.907 | > 4 µM | 0.637 | 0.691 µM
34 | NCI-H2342 (lung adenocarcinoma, adherent, top dose 4 µM) | 0.97 | > 4 µM | 0.909 | > 4 µM | 0.981 | > 4 µM
35 | NCI-H2347 (lung adenocarcinoma, adherent, top dose 4 µM) | 0.971 | > 4 µM | 0.894 | > 4 µM | 0.767 | 1.8 µM
36 | NCI-H2405 (lung adenocarcinoma, adherent, top dose 4 µM) | 0.985 | > 4 µM | 0.908 | > 4 µM | 0.979 | > 4 µM
37 | NCI-H2444 (non-small cell lung carcinoma, adherent, top dose 4 µM) | 0.944 | > 4 µM | 0.912 | > 4 µM | 0.981 | > 4 µM
38 | NCI-H2452 (mesothelioma, adherent, top dose 4 µM) | 0.952 | > 4 µM | 0.906 | > 4 µM | 0.983 | > 4 µM
39 | NCI-N87 (stomach, adherent, top dose 4 µM) | 0.96 | > 4 µM | 0.944 | > 4 µM | 0.974 | > 4 µM
40 | NCI-SNU-1 (stomach, suspension, top dose 4 µM) | 0.985 | > 4 µM | 0.978 | > 4 µM | 0.981 | > 4 µM

Row | Cell Line | AUC [1] | IC50 [1] | AUC [2] | IC50 [2] | AUC [3] | IC50 [3]
41 | NCI-SNU-5 (stomach, suspension, top dose 4 µM) | 0.966 | > 4 µM | 0.92 | > 4 µM | 0.969 | > 4 µM
42 | NCI-SNU-16 (stomach, suspension, top dose 4 µM) | 0.941 | > 4 µM | 0.988 | > 4 µM | 0.985 | > 4 µM
43 | NEC8 (testis, adherent, top dose 4 µM) | 0.952 | > 4 µM | 0.917 | > 4 µM | 0.986 | > 4 µM
44 | NH-12 (neuroblastoma, adherent, top dose 4 µM) | 0.867 | > 4 µM | 0.83 | 2.94 µM | 0.898 | > 4 µM
45 | NKM-1 (acute myeloid leukaemia, suspension, top dose 4 µM) | 0.915 | > 4 µM | 0.814 | 2.25 µM | 0.949 | > 4 µM
46 | NMC-G1 (glioma, adherent, top dose 4 µM) | 0.93 | > 4 µM | 0.9 | > 4 µM | 0.928 | > 4 µM
47 | NOMO-1 (acute myeloid leukaemia, suspension, top dose 4 µM) | 0.775 | 1.81 µM | 0.706 | 1.04 µM | 0.831 | 3.02 µM
48 | NOS-1 (osteosarcoma, adherent, top dose 4 µM) | 0.933 | > 4 µM | 0.922 | > 4 µM | 0.911 | > 4 µM
49 | NU-DUL-1 (B-cell lymphoma, suspension, top dose 4 µM) | 0.839 | 1.99 µM | 0.807 | 1.58 µM | 0.953 | > 4 µM
50 | NUGC-3 (stomach, adherent, top dose 2 µM) | 0.83 | 1.48 µM | 0.811 | 1.23 µM | 0.751 | 0.733 µM
51 | NUGC-4 (stomach, adherent, top dose 4 µM) | 0.988 | > 4 µM | 0.939 | > 4 µM | 0.901 | > 4 µM
52 | NY (osteosarcoma, adherent, top dose 4 µM) | 0.942 | > 4 µM | 0.97 | > 4 µM | 0.987 | > 4 µM
53 | OACM5-1 (oesophagus, semi-adherent, top dose 4 µM) | 0.986 | > 4 µM | 0.986 | > 4 µM | 0.986 | > 4 µM
54 | OACp4C (oesophagus, adherent, top dose 4 µM) | 0.826 | 3.09 µM | 0.828 | 3.17 µM | 0.846 | 3.84 µM
55 | OAW-28 (ovary, adherent, top dose 2 µM) | 0.809 | 1.4 µM | 0.946 | > 2 µM | 0.728 | 0.674 µM
56 | OC-314 (ovary, adherent, top dose 4 µM) | 0.924 | > 4 µM | 0.936 | > 4 µM | 0.991 | > 4 µM
57 | OCI-AML2 (acute myeloid leukaemia, suspension, top dose 4 µM) | 0.962 | > 4 µM | 0.944 | > 4 µM | 0.973 | > 4 µM
58 | OCI-AML3 (acute myeloid leukaemia, suspension, top dose 4 µM) | 0.977 | > 4 µM | 0.959 | > 4 µM | 0.304 | 0.0772 µM
59 | OCI-AML5 (acute myeloid leukaemia, suspension, top dose 4 µM) | 0.725 | 1.02 µM | 0.816 | 1.97 µM | 0.986 | > 4 µM

From the supplement of paper PMC4967469
